# Reference: PubChem BioAssay AID686978 (National Center for Advancing Translational Sciences (NCATS), 2013)
# About 64,000 (15%) of roughly 420,000 compounds were called active. This list was built around the results that the source calls inconclusive (neither active nor inactive); the mix of calls is not that of the screen. Calls come from the whole dose curve; as a rule, active = well fitted inhibition curve with a large enough effect; inconclusive = small, poorly fitted or top-dose-only effect; inactive = flat fitted curve, though single readings scatter. Potencies of inconclusive entries are left out as doubtful fits.
# Assay: qHTS for Inhibitors of human tyrosyl-DNA phosphodiesterase 1 (TDP1): qHTS in cells in absence of CPT; note: nearly all actives have a fitted effect of over 55% in size
# Conditions: DT40 Tdp1-/- hTDP1 cells, no CPT, ATP luminescence, 48 h; activity change, negative = growth inhibition: at 46.2 µM (top of the series) unless noted
# Method in brief: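 Compound effects on proliferation are scored in DT40 Tdp1-/-;hTDP1 cells in the absence of CPT. ATP levels (CellTiter-Glo luminescence) are recorded after a ≥48 hr, 37 °C incubation.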
# % is set by controls: 0 for no effect and ±100 for the full control effect; potency is the fitted concentration of half-maximal effect; tags give direction and shape of the fitted curve.
Compound,Potency,"activity change, negative = growth inhibition"
CC1CCN(S(=O)(=O)c2cccc(C(=O)Nc3ccccc3)c2)CC1,"inconclusive [inhibitor, partial curve, poor fit]",
COC(=O)C(CC(C)C)N1CCC(=O)c2ccccc2S1(=O)=O (centres undefined),"inconclusive [inhibitor, single point]",
NC(=O)c1cc[n+](Cc2ccccc2Cl)cc1,,inactive: 16.5%
COC(C/C=C\[C@H](O)COCc1ccccc1)OC,,inactive: -5.81%
COc1ccc(C(=O)N2CCCC(CCC(=O)N3CCN(c4ccccn4)CC3)C2)cc1 (centres undefined),"inconclusive [inhibitor, partial curve, poor fit]",
COc1cccc(CN2C(=O)c3ccccc3Sc3ccc(C(=O)NCCc4ccc(C)cc4)cc32)c1,"inconclusive [inhibitor, partial curve]",
COc1ccccc1NC(=O)C1=C(C)Nc2nnnn2C1c1cccc(C)c1 (centres undefined),"inconclusive [inhibitor, single point]",
CN(C)S(=O)(=O)c1cccn1-c1ncc(C(F)(F)F)cc1Cl,"inconclusive [inhibitor, single point]",
Cc1nnc(SCCn2c(N(C)Cc3ccccc3)nc3c2c(=O)n(C)c(=O)n3C)s1,active: 11.2 µM,
Cn1c(N)c(C(=O)COC(=O)Cc2ccc(Cl)cc2)c(=O)n(C)c1=O,"inconclusive [inhibitor, single point]",
COc1ccc(Cc2nnc(NC(=O)C3CCN(C(=O)c4ccco4)CC3)s2)cc1,"inconclusive [inhibitor, single point]",
COc1ccc2cc(C(C)C(=O)N3CCC(C)CC3)ccc2c1 (centres undefined),"inconclusive [inhibitor, single point]",
Cc1ccc(Cn2cc(SCC(N)=O)c3ccccc32)cc1,"inconclusive [inhibitor, single point]",
COc1ccc(C2CC2/C(=N/O)c2ccccn2)cc1 (centres undefined),"inconclusive [inhibitor, single point]",
Cc1cccc(N(C(=O)c2snc(C(N)=O)c2N)C(C(=O)NC2CCCC2)c2ccc(C)o2)c1 (centres undefined),active: 14.6 µM,
O=c1[nH]c(CN2CCN(c3ccc([N+](=O)[O-])cc3)CC2)nc2ccsc12,"inconclusive [inhibitor, partial curve]",
COc1ccccc1C(=O)N1CCCCC1CCN1CCOCC1 (centres undefined),,inactive: 0.645%
Cc1cccc(NC(=O)Cn2cc(C(=O)C3CCCCC3)c3ccccc32)c1C,"inconclusive [inhibitor, single point]",
O=C1c2ccccc2NC(c2cccc([N+](=O)[O-])c2)N1CCc1ccccc1 (centres undefined),"inconclusive [inhibitor, single point]",
COc1ccc(N2CCN(c3cc(C)c4ccc(C)cc4n3)CC2)cc1,"inconclusive [inhibitor, single point]",
O=C(NCc1nnc(SCC(=O)N2CCN(c3ccccc3)CC2)o1)c1ccccc1,"inconclusive [inhibitor, single point]",
COCCN1C(=O)CSCC1(C)C(=O)NCc1ccccc1 (centres undefined),,inactive: 5.4%
CCCCCCCC/C=C\CCCCCCCC(=O)NCc1ccc(O)c(OC)c1,"inconclusive [inhibitor, partial curve, poor fit]",

Compound,Potency,"activity change, negative = growth inhibition"
CC(=O)c1ccc(C(=O)N2CCCC(CCC(=O)N(C)CCc3ccccn3)C2)s1 (centres undefined),,inactive: -14%
COc1ccc(C(=O)N2CCC[C@@]3(CCN(Cc4nccs4)C3)C2)cc1,,inactive: -13.9%
O=C(CN1CCc2ccccc2C1)NCc1ccco1,,inactive: -9.95%
CC1(C(=O)NCc2ccc(Cl)cc2)CCN1C(=O)Cc1cccc2ccccc12 (centres undefined),"inconclusive [inhibitor, single point]",
O=c1oc2ccccc2c(Nc2ccc(F)cc2)c1[N+](=O)[O-],"inconclusive [inhibitor, single point]",
CCC(C)n1ncn(-c2ccc(N3CCN(c4ccc(OC)cc4)CC3)cc2)c1=O (centres undefined),"inconclusive [inhibitor, partial curve]",
Cc1cccc(NC(=O)C2CCN(S(=O)(=O)c3ccc4c(c3)NC(=O)CO4)CC2)c1,,inactive: -16.4%
O=C(COC(=O)c1oc2ccccc2c1CSc1ccc(Cl)cc1)NC1CCCC1,,inconclusive: -35.4% [inhibitor]
COc1ccccc1NC(=O)c1sc2nc(C)c(C(=O)Nc3ccc(C)cc3C)c(-c3ccc(Br)cc3)c2c1N,,inactive: -19.8%
Cc1ccccc1CNC(=O)Cn1ccc2cc(S(=O)(=O)N3CCCCC3)ccc21,"inconclusive [inhibitor, single point]",
COc1ccc(-c2c(-c3cc(OC)cc(OC)c3)n(C)c3ccc(-c4ccc5c(c4)OCCO5)cc23)cc1,"inconclusive [inhibitor, partial curve]",
CC(C)(C)NC(=O)CN(Cc1ccccc1)S(=O)(=O)c1ccccc1,,inactive: -8.34%
Cc1nc(Nc2ncc3c(n2)CC(C)(C)CC3=O)nc2ccccc12,,inactive: 22.4%
O=C(Cc1c[nH]c2ccccc12)N1CCN(S(=O)(=O)c2cccc(Cl)c2Cl)CC1,"inconclusive [inhibitor, single point]",
COc1ccc2nc(NC(=O)C3CC(=O)N(c4ccc5c(c4)OCCO5)C3)sc2c1 (centres undefined),"inconclusive [inhibitor, single point]",
CCOc1ccc(C(=O)c2cn(CC(=O)Nc3ccc4c(c3)OCCO4)c3ccc(OC)cc3c2=O)cc1,"inconclusive [inhibitor, single point]",
CCCc1nn2c(=O)cc(COC(=O)c3cccs3)nc2s1,"inconclusive [inhibitor, single point]",
NC(=O)c1cc2ccncc2c2ccccc12,active: 6.51 µM,
CC(C)CCOc1ccc(/C=C2\CCn3c2nc2cc(C(=O)O)ccc2c3=O)cc1,"inconclusive [inhibitor, single point]",
COc1ccc([N+](=O)[O-])cc1NC(=O)Nc1cccc(Cl)c1,active: 9.2 µM,
O=S(=O)(c1cccc(F)c1)N1CCC(CO)(Cc2cccc(F)c2)CC1,"inconclusive [inhibitor, single point]",
CCCCCCN1CCN(C2CN(C3CCCCC3)S(=O)(=O)C2)CC1 (centres undefined),"inconclusive [inhibitor, single point]",
CC(=O)c1ccc(NC(=O)c2ccc3c(c2)nnn3C2CCCC2)cc1,,inactive: -3.4%

Compound,Potency,"activity change, negative = growth inhibition"
Cc1cccc(C(=O)Nc2ccc(C(=O)OCc3cc(=O)n4c5c(sc4n3)CCCC5)cc2)c1,,inactive: -26.4%
Cn1c(Cl)cnc1C(O)(c1ccccc1)c1ccccc1,"inconclusive [inhibitor, partial curve]",
O=C(CN1CCN(S(=O)(=O)c2ccc(Br)s2)CC1)N1CCCCC1,,inactive: -24.5%
COc1ccccc1NC(=O)N1CCN(c2ccc3nncn3n2)CC1,,inactive: -4.21%
CCOC(=O)c1ccc(-n2c(CN(CC)CC)nc3ccc([N+](=O)[O-])cc3c2=O)cc1,"inconclusive [inhibitor, single point]",
Cc1ccn2c(-c3n[nH]c(=S)n3Cc3ccccc3)c(C)nc2c1,"inconclusive [inhibitor, single point]",
CCc1ccccc1NC(=O)c1ccc(NCCc2ccccc2)c([N+](=O)[O-])c1,"inconclusive [inhibitor, single point]",
CN(C)c1nc(-c2ccc3c(c2)OCO3)nc2ccccc12,"inconclusive [inhibitor, single point]",
CCCCCn1c(=O)[nH]c2cc(C(=O)N3CCN(c4cc(Cl)ccc4C)CC3)ccc2c1=O,"inconclusive [inhibitor, single point]",
Oc1ccc2ccccc2c1/C=N/Nc1nnc(-c2ncc[nH]2)c2ccccc12,active: 5.17 µM,
CCOC(=O)c1c(C)nc2sc3c(=O)n(-c4ccc(C(C)=O)cc4)nnc3c2c1-c1ccc(OC)cc1,"inconclusive [inhibitor, single point]",
OCCN1CCN(c2ncnc3c2ncn3[C@H]2CN(Cc3ccc(F)cc3)C[C@@H](CO)O2)CC1,"inconclusive [inhibitor, single point]",
Cc1c(OCC(F)(F)F)ccnc1CSc1nc2ccccc2[nH]1,active: 23.1 µM,
O=C(CSc1nc2ccccc2c(=O)[nH]1)Nc1ccc(S(=O)(=O)N2CCCC2)cc1,"inconclusive [inhibitor, single point]",
COc1ccc(NC(=O)CSc2nc3ccccc3nc2Cc2ccc(C)cc2)cc1Cl,"inconclusive [inhibitor, single point]",
CCOC(=O)c1c(C)n(OCc2ccccc2)c2ccc3nonc3c12,"inconclusive [inhibitor, partial curve]",
COc1ccc(N2CCN(c3n[nH]c(N)n3)CC2)cc1,,inactive: -29%
CC(NCCc1ccc(S(N)(=O)=O)cc1)C(=O)NCc1ccccc1 (centres undefined),,inactive: 13.9%
Nc1nc(-c2ccccc2)c(-c2ccc([N+](=O)[O-])cc2)s1,"inconclusive [inhibitor, partial curve]",
Cc1ccc2nc(-c3ccc(F)cc3)nc(SCC(=O)NCC3CCCO3)c2c1 (centres undefined),,inactive: -14.7%
CCOC(=O)c1c(S(=O)(=O)NCC(=O)Nc2cc(C)ccc2OC)c(C)n(C)c1C,"inconclusive [inhibitor, single point]",
Cc1cc(N/C=C\c2nnnn2-c2ccc(F)cc2)no1,,inactive: -5.19%
Cc1cccc(NS(=O)(=O)c2cn(C)c(=O)n(C)c2=O)c1C,,inactive: -0.366%
